Measured values reported in PubChem BioAssay AID2147 (National Center for Advancing Translational Sciences (NCATS), 2009).
In all, about 230,000 compounds went through this assay and about 3,600 (1.6%) were called active. The shares of active, inactive and inconclusive entries below differ from those in the screen. Calls come from the whole dose curve; as a rule, active = well fitted inhibition curve with a large enough effect (not every such curve was filed as active); inconclusive = small, poorly fitted or top-dose-only effect, or another doubt; inactive = no such curve, though single readings can be large or run the other way. A potency beside an inconclusive call is a rough fit, not a confirmed value.

Target: Lysine-specific demethylase 4E (Homo sapiens) (UniProt B2RXH2)
Assay: qHTS Assay for Inhibitors of Human Jumonji Domain Containing 2E (JMJD2E)
Settings: JMJD2E catalytic domain, FDH-coupled NADH fluorescence (FDH is formaldehyde dehydrogenase); series mostly up to 57.1 µM; activity change, negative = inhibition: at the top concentration
Note: nearly all actives have a fitted effect of over 50% in size.
Potency is the fitted concentration of half-maximal effect; tags give direction and shape of the fitted curve.
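Throughout, for activity change, negative = inhibition: 0% = wells with enzyme and -100% = buffer wells without enzyme.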

Chain of UniProt B2RXH2 (B2RXH2 whole entry, looked up, the tested form may be a part): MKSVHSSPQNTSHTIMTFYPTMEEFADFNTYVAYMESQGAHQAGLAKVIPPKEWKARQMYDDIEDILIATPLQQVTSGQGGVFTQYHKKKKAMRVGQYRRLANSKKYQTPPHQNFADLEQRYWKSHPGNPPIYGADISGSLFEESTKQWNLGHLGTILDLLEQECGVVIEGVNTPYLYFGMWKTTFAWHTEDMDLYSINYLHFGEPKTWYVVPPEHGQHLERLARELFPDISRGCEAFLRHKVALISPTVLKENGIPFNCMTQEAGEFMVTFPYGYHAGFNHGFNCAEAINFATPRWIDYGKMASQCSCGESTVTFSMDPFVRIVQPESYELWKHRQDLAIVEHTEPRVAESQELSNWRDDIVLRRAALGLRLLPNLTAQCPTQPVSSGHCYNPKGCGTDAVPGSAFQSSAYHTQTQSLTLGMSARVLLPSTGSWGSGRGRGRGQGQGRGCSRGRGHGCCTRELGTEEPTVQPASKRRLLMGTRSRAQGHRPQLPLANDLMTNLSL

SMILES | Potency | activity change, negative = inhibition
c1ccc(Nc2ncnc3ccc(-c4ccc5c(c4)OCO5)cc23)cc1 | inconclusive: 35.5 µM [inhibitor, single point] | 
CC1=NN(c2ccc(C)c(C)c2)C(=O)/C1=C/c1ccc2c(c1)n(C)c(=O)n2C | inconclusive: 2.24 µM [inhibitor, full curve] | 
Cc1cc(Cl)ccc1C(=O)C1CCCN(C(=O)CCN2CCCO2)C1 (configuration not stated) | inconclusive: 28.2 µM [inhibitor, single point] | 
COc1c(F)c(F)c(C(=O)Nc2cccc(Cl)c2N2CCOCC2)c(F)c1F | inconclusive: 28.2 µM [inhibitor, partial curve] | 
Cc1ccccc1CN1C(=O)CS/C1=N/N=C/c1ccco1 |  | inactive: 2.48%
CCc1nc(OCc2ccco2)c2sc3nc4c(cc3c2n1)COC(C)(C)C4 | inconclusive: 39.8 µM [inhibitor, single point] | 
CCCS(=O)(=O)c1c(S(=O)(=O)CCC)c2ccc(C(N)=O)cn2c1C(=O)OC | inconclusive: 28.2 µM [inhibitor, partial curve] | 
CCc1ccc2[nH]c(=O)c(CN(CCCN3CCOCC3)C(=O)Nc3cccc(Cl)c3)cc2c1 | inconclusive: 39.8 µM [inhibitor, single point] | 
CC(CCC#N)[N+](=O)[O-] (configuration not stated) |  | inactive: 0.113%
COc1cc(-c2csc(CCn3nc(C)cc3C)n2)cc(OC)c1OC |  | inactive: -0.512%
Cc1ccc(C(=O)N/C(=C\c2cccnc2)c2nc3ccccc3[nH]2)cc1 | inconclusive: 25.1 µM [inhibitor, single point] | 
c1ccc(CNc2ncnc3c2cnn3-c2ccccc2)cc1 | inconclusive: 39.8 µM [inhibitor, single point] | 
COc1ccc(/C=N/Nc2nc(=O)[nH]nc2C)cc1[N+](=O)[O-] |  | inactive: -2.85%
Cc1ccc(C)c2[nH]c(=O)c(CN(CCN3CCCC3)C(=O)Nc3ccc(F)cc3)cc12 | inconclusive: 39.8 µM [inhibitor, single point] | 
COc1ccc(C(=O)N/N=C/c2ccc(OC)c(OS(=O)(=O)c3ccccc3)c2)cc1 |  | inactive: -4.46%
CC1=NNC(=O)C1C(c1cccc(O)c1)C(C#N)C#N (configuration not stated) |  | inactive: -5.99%
COc1cccc(/C=N/NC(=O)c2ccc3nc[nH]c3c2)c1O | active: 10 µM | 
CC1CCCN(Cc2nc3c(c(=O)n(C)c(=O)n3C)n2Cc2c(F)cccc2Cl)C1 (configuration not stated) |  | inactive: 0.552%
CC(C)(C)c1cc(C(=O)N/N=C/c2ccccc2O)n(-c2ccccc2)n1 | inconclusive: 8.91 µM [inhibitor, full curve] | 
Cc1ccc(-c2nc3sc4c(c3c(=O)n2N)CCCC4)cc1 | inconclusive: 39.8 µM [inhibitor, single point] | 
CC[C@@]1(O)CC2CN(CCc3c([nH]c4ccccc34)[C@](C(=O)OC)(c3cc4c(cc3OC)N(C)C3[C@@](O)(C(=O)OC)C(OC(C)=O)[C@]5(CC)C=CCN6CC[C@@]43C65)C2)C1 (some centres not stated) | inconclusive: 22.4 µM [inhibitor, partial curve] | 
CC(NS(=O)(=O)c1cccc(Cl)c1)C(=O)Nc1ccc(-c2nc3ccccc3s2)cc1 (configuration not stated) | inconclusive: 25.1 µM [inhibitor, partial curve] | 
O=C(O)C1=C(OCc2ccc(F)c(F)c2)C(=O)NCC1 |  | inactive: -0.277%
O=C(NC(NC(=S)N1CCOCC1)C(Cl)(Cl)Cl)c1ccc(Cl)cc1 (configuration not stated) |  | inactive: -5.51%

SMILES | Potency | activity change, negative = inhibition
Cc1csc2ncc(C(=O)Nc3ccon3)c(=O)n12 | inconclusive: 28.2 µM [inhibitor, partial curve] | 
CCCc1cc(=O)oc2c(C)c(OCc3nn[nH]n3)ccc12 | inconclusive: 28.2 µM [inhibitor, partial curve] | 
COc1ccc(-n2c3nc4ccccc4nc3c3c(=N)oc(C)nc32)cc1 | inconclusive: 39.8 µM [inhibitor, single point] | 
CC1(C)Cc2nc3sc4c(=O)n(Cc5ccccc5)cnc4c3cc2CS1 |  | inactive: -1.04%
Cc1ccc(Cn2nnnc2CN2CCC(NC(=O)c3ccc(Br)cc3)CC2)cc1 |  | inactive: 2.24%
CCc1ccc(OCC(=O)NC2CC(C)(C)NC(C)(C)C2)cc1 |  | inactive: 2.47%
O=C(CN1C(=O)C2CC=CCC2C1=O)Nc1ccc(S(=O)(=O)Nc2ncccn2)cc1 (configuration not stated) |  | inactive: 7.57%
Nn1cnnc1SCC(=O)Nc1ccc(C2CCCCC2)cc1 |  | inactive: 2.8%
Cc1cccc2sc(NNC(=O)C3COc4ccccc4O3)nc12 (configuration not stated) | inconclusive: 17.8 µM [inhibitor, partial curve] | 
Cc1cccc(NC(=O)c2cc([N+](=O)[O-])ccc2N2CCCCC2)n1 |  | inactive: 4.85%
CCCCCNC(=O)c1ccc2c(=O)[nH]c3c(C(=O)NCC4CCCO4)sc(=S)n3c2c1 (configuration not stated) |  | inactive: -6.99%
Cc1cccn2c(=O)c3cc(C#N)c(=NC(=O)c4ccncc4)n(CCCOC(C)C)c3nc12 | inconclusive: 10 µM [inhibitor, partial curve] | 
COc1ccc(C(=O)OCC(=O)Nc2ccc(Cl)c(C(F)(F)F)c2)c(OC)c1OC |  | inactive: 21.3%
CCOC(=O)/C(=N\Nc1cc(Cl)ccc1Cl)N1CCN(C)CC1 | inconclusive: 39.8 µM [inhibitor, single point] | 
COc1ccc(Cc2nnc(N/N=C/c3ccc(O)cc3)[nH]c2=O)cc1OC | active: 14.1 µM | 
CCN1C(=O)c2cccc3c(NC(=O)c4ccccc4)ccc1c23 |  | inactive: -3.95%
CCCOc1ccc(-c2c(C(=O)N/N=C/c3ccc(OCC)cc3)nnn2-c2nonc2N)cc1 | inconclusive: 17.8 µM [inhibitor, partial curve] | 
Cc1c2cnn(CC(=O)Nc3cccc(C(F)(F)F)c3)c(=O)c2c(C)n1Cc1ccccc1F |  | inactive: 36.9%
Cc1ccc(-n2c(CNc3ccc(F)cc3)nnc2SCC(N)=O)cc1 |  | inactive: 2.38%
Cc1noc(NS(=O)(=O)c2ccc(NC(=O)CCN3C(=O)c4ccccc4C3=O)cc2)c1C |  | inactive: 2.67%
O=C(CSc1nnc2ccc(-c3ccccc3)nn12)NCC1CCCO1 (configuration not stated) | inconclusive: 25.1 µM [inhibitor, single point] | 
O=C(CSc1ccc2nnc(-c3ccncc3)n2n1)NCc1ccco1 | inconclusive: 35.5 µM [inhibitor, single point] | 
Cc1ccc(C)c(N2CCN(C(=O)c3ccc(CS(=O)(=O)c4ccccc4C)o3)CC2)c1 |  | inactive: 2.54%
